{"source": "PubChem BioAssay AID1768", "about": "(National Center for Advancing Translational Sciences (NCATS), 2009)", "note": "The whole screen tested about 270,000 compounds, of which about 620 (0.23%) were called active. Inconclusive means that the source gave no clear call. Such entries were picked first, then a sample of the others. The call rests on the fitted dose curve; in most records, active means well fitted inhibition curve with a large enough effect in the polarisation, with a control signal flat (not every such curve was filed as active); inconclusive means small, poorly fitted or top-dose-only effect, or effect the other way, or a change in a side signal; inactive means no such curve, though single readings can be large or run the other way; the % refers to the polarisation. A potency beside an inconclusive call is a rough fit, not a confirmed value. “Side channel” marks fits to a control or component signal instead of the main read-out. Potency means the concentration at half of the fitted maximal effect; tags describe the fitted curve by direction and shape or compound fluorescence and quenching."}
{"target": "Menin (Homo sapiens) (UniProt O00255)", "sequence (O00255 whole entry, looked up)": "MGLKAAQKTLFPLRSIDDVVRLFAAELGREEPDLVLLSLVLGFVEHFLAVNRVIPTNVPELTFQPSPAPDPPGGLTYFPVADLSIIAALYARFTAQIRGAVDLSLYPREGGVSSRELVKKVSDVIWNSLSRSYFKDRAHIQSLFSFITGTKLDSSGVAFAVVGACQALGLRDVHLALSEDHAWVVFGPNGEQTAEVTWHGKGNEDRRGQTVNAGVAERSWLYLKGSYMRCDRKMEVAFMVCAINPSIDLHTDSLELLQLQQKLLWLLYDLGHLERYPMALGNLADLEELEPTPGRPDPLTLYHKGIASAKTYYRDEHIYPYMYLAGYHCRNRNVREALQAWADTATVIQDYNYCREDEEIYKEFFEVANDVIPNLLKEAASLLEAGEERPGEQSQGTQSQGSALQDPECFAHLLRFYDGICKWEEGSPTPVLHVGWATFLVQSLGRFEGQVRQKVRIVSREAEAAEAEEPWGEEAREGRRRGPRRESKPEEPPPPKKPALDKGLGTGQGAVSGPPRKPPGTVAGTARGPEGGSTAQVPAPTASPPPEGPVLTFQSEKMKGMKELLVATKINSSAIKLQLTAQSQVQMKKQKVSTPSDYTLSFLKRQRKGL", "assay": "qHTS Assay for Inhibitors Targeting the Menin-MLL Interaction in MLL Related Leukemias: Competition With Texas Red Labeled MLL-derived Mutant Peptide; on FP activity change, negative = inhibition: % of control where 0% means no effect", "settings": "fluorescence polarization; FP activity change, negative = inhibition: at 61.6 µM (top of the series)"}
{"compound": "CCc1ccc(-n2cc(-c3ccc(F)cc3)[n+]3c2SCCC3)cc1", "Potency": "inconclusive: 39.8 µM [inhibitor, single point]"}
{"compound": "O=C(CSc1nnnn1-c1cccc2ccccc12)Nc1ccc(N2CCOCC2)c(Cl)c1", "Potency": "inconclusive: 14.1 µM [quencher, side channel, partial curve]"}
{"compound": "O=c1[nH][nH]c(=O)c2c(NS(=O)(=O)c3ccccc3)cccc12", "FP activity change, negative = inhibition": "inactive: 9.39%"}
{"compound": "CCN(CC)CCC(c1ccc(N(C)C)cc1)c1c(OC)cc(OC)c2c1OC(=O)CC2c1ccc(N(C)C)cc1", "note": "(stereo unspecified)", "Potency": "inconclusive: 2.51 µM [fluorescent, side channel, full curve]"}
{"compound": "O=C1C(=C(c2ccccc2)c2ccccc2)Nc2ccccc21", "Potency": "inconclusive: 39.8 µM [inhibitor, single point]"}
{"compound": "Cc1cccc(-c2nc(CSCC(=O)N3CCN(c4ccccn4)CC3)c(C)o2)c1", "Potency": "inconclusive: 14.1 µM [fluorescent, side channel, partial curve]"}
{"compound": "Cc1oc(-c2ccc(Cl)cc2)cc1-c1nn2c(-c3ccco3)nnc2s1", "Potency": "inconclusive: 20 µM [quencher, side channel, single point]"}
{"compound": "CSc1ccccc1NC(=O)Nc1ccc(F)c(Cl)c1", "Potency": "inconclusive: 11.2 µM [quencher, side channel, partial curve]"}
{"compound": "COc1ccc(OC)c(S(=O)(=O)NNC(=S)Nc2ccc3c(c2)OCO3)c1", "Potency": "inconclusive: 3.98 µM [quencher, side channel, full curve, poor fit]"}
{"compound": "Cc1[nH]n(-c2cccc3ccccc23)c(=O)c1/C=N/NC(=O)c1cccc([N+](=O)[O-])c1", "Potency": "inconclusive: 14.1 µM [quencher, side channel, partial curve]"}
{"compound": "Oc1cc2ccccc2cc1-c1n[nH]c(=S)n1Cc1ccco1", "Potency": "inconclusive: 17.8 µM [quencher, side channel, partial curve]"}
{"compound": "O=C(CCc1nnc(COc2ccccc2)o1)NCc1ccccc1", "Potency": "inconclusive: 39.8 µM [fluorescent, side channel, single point]"}
{"compound": "O=C(COc1ccc(OCc2ccccc2)cc1)NC1CCOC1=O", "note": "(stereo unspecified)", "Potency": "inconclusive: 39.8 µM [fluorescent, single point]"}
{"compound": "C1CCC(C(C[C@@H]2CCCCN2)C2CCCCC2)CC1", "Potency": "inconclusive: 2.82 µM [fluorescent, side channel, full curve, poor fit]"}
{"compound": "C/C=C(\\C)[C@H](O)C[Si](C)(C)c1ccccc1", "FP activity change, negative = inhibition": "inactive: -0.742%"}
{"compound": "CCN(CC)c1ccc(/C=C(\\C#N)C(=O)c2ccc(Br)cc2)cc1", "Potency": "inconclusive: 39.8 µM [fluorescent, side channel, single point]"}
